{"source": "paper PMC9911399", "about": "“Two distinct binding modes provide the RNA-binding protein RbFox with extraordinary sequence specificity”", "binders": {"B1": {"name": "ACGUAAA (DNA:RNA)", "RNA": "GGGAGACCGGAAUUCAGAUUGUCCACGUAAAUUAAAUCCCGUCGUAGCCACCA", "DNA 1": "CAATCTGAATTCCGGTCTCCC", "DNA 2": "TGGTGGCTACGACGGGATT"}, "B2": {"name": "CCCGUAG (DNA:RNA)", "RNA": "B1 RNA with A25C, G27C, U28G, A29U, A31G", "DNA 1": "CAATCTGAATTCCGGTCTCCC", "DNA 2": "TGGTGGCTACGACGGGATT"}, "B3": {"name": "UGACUUG (DNA:RNA)", "RNA": "GGGAGACCGGAAUUCAGAUUGUCCUGACUUGUUAAAUCCCGUCGUAGCCACCA", "DNA 1": "CAATCTGAATTCCGGTCTCCC", "DNA 2": "TGGTGGCTACGACGGGATT"}, "B4": {"name": "ACUACUC (DNA:RNA)", "RNA": "B1 RNA with G27U, U28A, A29C, A30U, A31C", "DNA 1": "CAATCTGAATTCCGGTCTCCC", "DNA 2": "TGGTGGCTACGACGGGATT"}, "B5": {"name": "CCUUAAA (DNA:RNA)", "RNA": "B1 RNA with A25C, G27U", "DNA 1": "CAATCTGAATTCCGGTCTCCC", "DNA 2": "TGGTGGCTACGACGGGATT"}, "B6": {"name": "ACUGCCA (DNA:RNA)", "RNA": "B1 RNA with G27U, U28G, A29C, A30C", "DNA 1": "CAATCTGAATTCCGGTCTCCC", "DNA 2": "TGGTGGCTACGACGGGATT"}, "B7": {"name": "ACGCCCC (DNA:RNA)", "RNA": "B1 RNA with U28C, A29C, A30C, A31C", "DNA 1": "CAATCTGAATTCCGGTCTCCC", "DNA 2": "TGGTGGCTACGACGGGATT"}, "B8": {"name": "ACGACCG (DNA:RNA)", "RNA": "B1 RNA with U28A, A29C, A30C, A31G", "DNA 1": "CAATCTGAATTCCGGTCTCCC", "DNA 2": "TGGTGGCTACGACGGGATT"}, "B9": {"name": "UCCUUGU (DNA:RNA)", "RNA": "B1 RNA with A25U, G27C, A29U, A30G, A31U", "DNA 1": "CAATCTGAATTCCGGTCTCCC", "DNA 2": "TGGTGGCTACGACGGGATT"}, "B10": {"name": "GCUAUAG (DNA:RNA)", "RNA": "B1 RNA with A25G, G27U, U28A, A29U, A31G", "DNA 1": "CAATCTGAATTCCGGTCTCCC", "DNA 2": "TGGTGGCTACGACGGGATT"}, "B11": {"name": "GCUGCGG (DNA:RNA)", "RNA": "B1 RNA with A25G, G27U, U28G, A29C, A30G, A31G", "DNA 1": "CAATCTGAATTCCGGTCTCCC", "DNA 2": "TGGTGGCTACGACGGGATT"}, "B12": {"name": "AAUCUAC (DNA:RNA)", "RNA": "B1 RNA with C26A, G27U, U28C, A29U, A31C", "DNA 1": "CAATCTGAATTCCGGTCTCCC", "DNA 2": "TGGTGGCTACGACGGGATT"}, "B13": {"name": "ACUCCGG (DNA:RNA)", "RNA": "B1 RNA with G27U, U28C, A29C, A30G, A31G", "DNA 1": "CAATCTGAATTCCGGTCTCCC", "DNA 2": "TGGTGGCTACGACGGGATT"}, "B14": {"name": "CCUCAAC (DNA:RNA)", "RNA": "B1 RNA with A25C, G27U, U28C, A31C", "DNA 1": "CAATCTGAATTCCGGTCTCCC", "DNA 2": "TGGTGGCTACGACGGGATT"}, "B15": {"name": "AUUAACC (DNA:RNA)", "RNA": "B1 RNA with C26U, G27U, U28A, A30C, A31C", "DNA 1": "CAATCTGAATTCCGGTCTCCC", "DNA 2": "TGGTGGCTACGACGGGATT"}, "B16": {"name": "CCUGCGG (DNA:RNA)", "RNA": "B1 RNA with A25C, G27U, U28G, A29C, A30G, A31G", "DNA 1": "CAATCTGAATTCCGGTCTCCC", "DNA 2": "TGGTGGCTACGACGGGATT"}, "B17": {"name": "GACAUGU (DNA:RNA)", "RNA": "B3 RNA with U25G, G26A, A27C, C28A, U30G, G31U", "DNA 1": "CAATCTGAATTCCGGTCTCCC", "DNA 2": "TGGTGGCTACGACGGGATT"}, "B18": {"name": "ACCGAGA (DNA:RNA)", "RNA": "B1 RNA with G27C, U28G, A30G", "DNA 1": "CAATCTGAATTCCGGTCTCCC", "DNA 2": "TGGTGGCTACGACGGGATT"}, "B19": {"name": "UGAGCUC (DNA:RNA)", "RNA": "B3 RNA with C28G, U29C, G31C", "DNA 1": "CAATCTGAATTCCGGTCTCCC", "DNA 2": "TGGTGGCTACGACGGGATT"}, "B20": {"name": "CAGACGA (DNA:RNA)", "RNA": "B1 RNA with A25C, C26A, U28A, A29C, A30G", "DNA 1": "CAATCTGAATTCCGGTCTCCC", "DNA 2": "TGGTGGCTACGACGGGATT"}}, "note": "Positions count from the first letter of the chain named. Some of the results follow."}
{"molecular_target": "T1, RBFOX1 RRM RbFoxmut (Fox-RRM*) (Homo sapiens, UniProt Q9NWB1 109-208, R118D;E147R;N151S;E152T)", "T1 sequence": "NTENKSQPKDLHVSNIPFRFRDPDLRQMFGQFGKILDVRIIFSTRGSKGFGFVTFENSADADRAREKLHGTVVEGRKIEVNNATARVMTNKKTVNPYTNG", "test": "EMSA; HiTS-Eq, 1 nM pool, 10 min; buffer printed only for the single-RNA assays: 10 mM Tris pH 7.5, 150 mM NaCl, 3.4 mM EDTA, 0.001% NP-40, 30 C", "details": "tags: His6 N-terminal (pET28a); label: 5' 32P", "outline": "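Purified RbFox RRM, wild type or mutant, was incubated for 10 min in 50 µL with 1 nM of a 5′-radiolabelled RNA pool carrying 7 randomized nucleotides, whose flanks were annealed to DNA oligonucleotides, over a series of increasing protein concentrations. Unbound RNA was resolved on 8% native PAGE, cut out, reverse-transcribed, barcoded by PCR and sequenced on an Illumina HiSeq 2500. Relative association constants were derived from changes in read counts for each RNA species versus the control reaction and normalised to the cognate motif.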"}
{"binder": "B1", "binding signal": "0.126 KA relative to UGCAUGU"}
{"binder": "B2", "binding signal": "0.101 KA relative to UGCAUGU"}
{"binder": "B3", "binding signal": "0.272 KA relative to UGCAUGU"}
{"binder": "B4", "binding signal": "0.0497 KA relative to UGCAUGU"}
{"binder": "B5", "binding signal": "0.0902 KA relative to UGCAUGU"}
{"binder": "B6", "binding signal": "0.112 KA relative to UGCAUGU"}
{"binder": "B7", "binding signal": "0.0894 KA relative to UGCAUGU"}
{"binder": "B8", "binding signal": "0.102 KA relative to UGCAUGU"}
{"binder": "B9", "binding signal": "0.105 KA relative to UGCAUGU"}
{"binder": "B10", "binding signal": "0.135 KA relative to UGCAUGU"}
{"binder": "B11", "binding signal": "0.111 KA relative to UGCAUGU"}
{"binder": "B12", "binding signal": "0.0676 KA relative to UGCAUGU"}
{"binder": "B13", "binding signal": "0.0616 KA relative to UGCAUGU"}
{"binder": "B14", "binding signal": "0.0606 KA relative to UGCAUGU"}
{"binder": "B15", "binding signal": "0.07 KA relative to UGCAUGU"}
{"binder": "B16", "binding signal": "0.0809 KA relative to UGCAUGU"}
{"binder": "B17", "binding signal": "0.122 KA relative to UGCAUGU"}
{"binder": "B18", "binding signal": "0.0698 KA relative to UGCAUGU"}
{"binder": "B19", "binding signal": "0.0396 KA relative to UGCAUGU"}
{"binder": "B20", "binding signal": "0.0361 KA relative to UGCAUGU"}
